Results as given in PubChem BioAssay AID493208 (National Center for Advancing Translational Sciences (NCATS), 2011).
Among all 44,000 compounds or so, about 340 (0.77%) were called active. About 5% were inconclusive and are not listed. Calls come from the whole dose curve; as a rule, active = well fitted inhibition curve with a large enough effect; inconclusive = small, poorly fitted or top-dose-only effect; inactive = flat fitted curve, though single readings scatter. The list shows a part of the results.

Assay: Acumen qHTS Assay for Inhibitors of the mTORC1 Signaling Pathway in MEF (Tsc2-/-, p53-/-) Cells: Sytravon; note: nearly all actives have a fitted effect of over 50% in size;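 for activity change, negative = inhibition: plate controls were DMSO for no effect and rapamycin for full effect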
Settings: phospho-rpS6 immunofluorescence/PI, 24 h; series mostly up to 38.3 µM; activity change, negative = inhibition: at the top concentration
In short: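 Tsc2-/-, p53-/- MEFs (empty-vector stable line) in DMEM + 10% FBS were treated with compounds 24 h at 37 degree Celsius, fixed, and immunostained for phospho-rpS6 (Alexa-488) with propidium iodide counterstain. Laser-scanning cytometry gave % positive cells, normalized against 7.5 nM rapamycin and DMSO.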
Potency is the fitted concentration of half-maximal effect.

SMILES	activity change, negative = inhibition	Potency
CCOc1cc(CNCCSc2nnnn2-c2ccccc2)cc(Cl)c1OC	inactive: -8.25%	–
COc1cc(NC(=O)c2nnn(CC(=O)Nc3ccccc3)c2N)cc(OC)c1	inactive: -7.97%	–
Cc1ccc2nc(-c3ccc(NC(=O)COc4c(C)ccc(C)c4C)cc3)sc2c1	inactive: 1.62%	–
O=C(NC1CCCCC1)c1ccc2c(c1)N(Cc1ccccc1)C(=O)c1ccccc1S2	inactive: 6.35%	–
CSc1nc(-c2ccc(F)cc2)nc2c1Cc1c(CO)cnc(C)c1O2	inactive: -4.38%	–
CCCc1nn2c(=O)cc(COC(=O)c3ccc(NC(=O)C(C)Oc4ccccc4)cc3)nc2s1 (stereo not drawn)	inactive: 6.74%	–
CCCCNc1nc(Oc2ccc(=O)n(C)n2)nc(N(C)C)n1	inactive: -6.05%	–
COc1ccc(C(=O)c2cn(Cc3ccc(C)cc3)c3cc4c(cc3c2=O)OCO4)cc1	inactive: -0.575%	–
COc1ccccc1-c1noc(CSc2nc3ccc(C)cc3[nH]2)n1	inactive: -6.43%	–
O=C(CSc1cn(CC(=O)N2CCCCC2)c2ccccc12)Nc1ccccc1F	inactive: -13.7%	–
Cc1c(Cl)cccc1NC(=O)CCn1c(=O)c2cccn2c2ccccc21	inactive: -14.6%	–
Cc1ccc2c(CC(=O)Nc3ccccc3C(F)(F)F)coc2c1C	inactive: 5.1%	–
CC(CNC(=O)C1CCN(Cc2cc3ccccc3n2Cc2ccccc2)CC1)c1ccccc1 (stereo not drawn)	inactive: -15%	–
CCOc1ccccc1NC(=O)CSc1nccn1-c1ccc(Cl)cc1	inactive: -1.07%	–
CSc1ccc(CCNC(=O)C2CCN(c3nc4ccccc4nc3C(F)(F)F)CC2)cc1	inactive: 0.724%	–
O=C(Cn1c(=O)n(Cc2ccc3c(c2)OCO3)c(=O)c2oc3ccccc3c21)Nc1ccccc1	inactive: 0.649%	–
Cc1ccccc1CNC(=O)C1CCN(c2nnc(C)c3c(C)n(-c4ccccc4)nc23)CC1	inactive: -1.07%	–
CCc1ccc(-c2nc3ccc(Br)cc3c(C(=O)O)c2C)s1	inactive: 0.15%	–
CCn1c(C(=O)NCc2cccc(Br)c2)cc2oc3ccccc3c21	inactive: -8.15%	–
COC(=O)c1ccc(NC(=O)c2c(NCc3ccc(C)o3)sc3c2CCCC3)cc1	inactive: 0.808%	–
CCc1nnc(NC(=O)c2cc(=O)c3cc(C)c(C)cc3o2)s1	inactive: 0.927%	–
COc1cc(-c2noc(-c3cc4cc(F)ccc4oc3=O)n2)cc(OC)c1OC	inactive: -3.66%	–
CN1C(=O)C2(c3ccccc31)N(c1ccccc1)C(=O)CS2(=O)=O (stereo not drawn)	inactive: -21.7%	–
Cc1cc(C)c2oc(C(=O)Nc3sc4c(c3C(=O)NCc3ccco3)CCC4)cc(=O)c2c1	inactive: -5.23%	–
Cc1ccc(NC(=O)/C=C/c2ccccc2)c(Br)c1	inactive: 17.8%	–

SMILES	activity change, negative = inhibition	Potency
COc1ccc(-c2nc3scc(CCNS(=O)(=O)c4c(C)noc4C)n3n2)cc1	inactive: -1.36%	–
CN1CCN(C(=O)C(=O)Nc2c3c(nn2-c2ccc(F)cc2)CSC3)CC1	inactive: -0.505%	–
Cc1ccc(C)c(CN2C(=O)c3ccccc3S(=O)(=O)c3ccc(C(=O)Nc4ccccc4C(F)(F)F)cc32)c1	inactive: 1.4%	–
COc1ccc(N2CCN(C(=O)Cn3cnc4nc5c(cc4c3=O)CCCC5)CC2)cc1	inactive: 13.3%	–
CCOC(=O)c1cccc(NC(=O)c2cc(CN3CCCC3)on2)c1	inactive: 4.59%	–
COc1ccc(/C=C\c2onc(C)c2S(=O)(=O)N2CCC(C(=O)Nc3ccccc3OC)CC2)cc1	inactive: 0.808%	–
CCS(=O)(=O)N1N=C(c2ccc(C)cc2)CC1c1cc2ccc(OC)cc2nc1Cl (stereo not drawn)	inactive: -15.6%	–
COc1ccccc1OC(C)C(=O)NCC1(N2CCOCC2)CCCCC1 (stereo not drawn)	inactive: -7.11%	–
Cc1ccc(Cn2cccc2C2=NC(C)(C)CO2)cc1	inactive: -16.1%	–
CC1CCN(S(=O)(=O)c2ccc3c(c2)N(CC(=O)NC(C)C)C(=O)CS3)CC1	inactive: 3.72%	–
CCc1nn(CCCC(=O)NCc2ccccc2Br)c(=O)c2cc3occc3n12	inactive: -3.84%	–
CCCCOc1ccc(-c2nonc2NC(=O)c2ccco2)cc1	inactive: 0.176%	–
COc1ccc(NC(=O)CCNS(=O)(=O)c2cccc3nonc23)cc1	inactive: -28.5%	–
CCCC(=O)N1c2ncnn2C2(CCCCC2)[C@@H]2CCCC[C@@H]21	inactive: -0.899%	–
Cc1ccc(CCNC(=O)CN(c2ccc(C)cc2)S(=O)(=O)c2c(C)noc2C)cc1	inactive: 0.546%	–
Cc1c(Cl)ccc2sc(N3CCN(C(=O)c4ccco4)CC3)nc12	inactive: -3.79%	–
COc1ccccc1CNc1ccc(-c2nc(C(C)C)no2)cc1[N+](=O)[O-]	inactive: -0.79%	–
CCOc1ccc(CNC(=O)c2cc3oc4ccccc4c3n2C)cc1	inactive: 3.94%	–
Cc1ccc(C)c(NC(=O)Cn2cc(C(=O)c3ccncc3)c(=O)c3cc(F)ccc32)c1	inactive: -3.76%	–
COc1ccc(NC(=O)Cn2cnc3sc(C)c(S(=O)(=O)N4CCN(C)CC4)c3c2=O)cc1OC	inactive: -2.54%	–
O=C(CSc1nc2c(c(=O)[nH]1)CCC2)Nc1ccccc1F	inactive: -9.35%	–
CN(C)c1ccc(CNc2nc(-c3ccco3)nn2S(=O)(=O)c2ccc3ccccc3c2)cc1	inactive: 0.335%	–
Cc1ccccc1OCc1ccc(-c2nc(C#N)c(NCCCN(C)C)o2)o1	–	active: 5.85 µM
Cc1ccc(C(=O)Nc2ccc(Cl)c(-c3nc4ncccc4o3)c2)c(C)c1	inactive: -17.8%	–
Cc1ccccc1-c1nc(CNC(=O)Nc2ccccc2)c(C)o1	inactive: 0.461%	–

SMILES	activity change, negative = inhibition	Potency
COc1cccc(-c2nc(-c3ccc(-c4ccccc4)nc3OC)no2)c1	inactive: -2.5%	–
CCOC(=O)C1CCN(C(c2ccccc2OC)c2c(O)cc(C)n(CCOC)c2=O)CC1 (stereo not drawn)	inactive: -0.649%	–
O=C(Nc1ccc(F)cc1)[C@H](Cc1ccccc1)N1Cc2ccccc2C1=O	inactive: -0.4%	–
CC(C)CCOc1ccc(C(=O)Nc2sc3c(c2C#N)CCCCC3)cc1	inactive: 5.44%	–
CCOc1ccccc1NC(=O)C1CCN(S(=O)(=O)c2c(C)noc2/C=C/c2ccc(C)cc2)CC1	inactive: -0.875%	–
COC(=O)c1ccc(Nc2ncnc3c2nc2n3CCCC2)cc1	inactive: -0.0494%	–
CCOc1ccc(C(=O)NCCn2cc(SCC(=O)NCCc3ccc(OC)c(OC)c3)c3ccccc32)cc1	inactive: -5.29%	–
COc1ccccc1OCCn1cc(C(=O)c2cccs2)c2ccccc21	inactive: -0.0757%	–
O=C(c1cc2c(=O)oc3ccccc3c2s1)N1CCN(c2cccc(Cl)c2)CC1	inactive: 6.85%	–
COc1ccc(Cl)cc1NC(=O)Cn1ccn(Cc2ccc(C)cc2)c(=O)c1=O	inactive: -2.51%	–
CCOC(=O)N1CCN(C(=O)CN(c2cccc(Cl)c2C)S(=O)(=O)c2ccc(C)cc2)CC1	inactive: -14.9%	–
O=C(Nc1ccccc1)c1cccc2c(=O)c3c([nH]c12)CCCC3	inactive: -0.0417%	–
Cc1cccc(-n2c(SCC(N)=O)nc3c(oc4ccccc43)c2=O)c1	inactive: -0.246%	–
COc1ccccc1-c1nc(-c2ccc(Br)o2)no1	inactive: -0.347%	–
COCCn1c(SCC(=O)c2cc(C)ccc2C)nc2cc(C(=O)NC3CCCC3)ccc2c1=O	inactive: 0%	–
Cc1cc(C)cc(NC(=O)c2cc(S(=O)(=O)N3CCCCCC3)cn2C)c1	inactive: -9.56%	–
CCN(CC)CCN(C(=O)c1ccco1)c1nc2ccc(Cl)cc2s1	inactive: -0.533%	–
Cn1c(SCc2ccc(F)cc2)nc2ccc(C(=O)NCc3ccc(F)cc3)cc21	inactive: 0.427%	–
Cc1nn(CC(=O)NC2CC2)c(=O)c2cc3ccccc3n12	inactive: -1.32%	–
Cc1ccc(-n2nc3c(N4CCC(C(=O)NC(C)C)CC4)nnc(C)c3c2C)cc1	inactive: -8.63%	–
Cc1ccc(NC(=O)Cn2c(-c3ccc4c(c3)OCO4)cn(-c3ccccc3)c2=O)cc1C	inactive: 8.23%	–
Cc1ccc(C2Nc3ccccc3-n3c(-c4ccccc4)c4c(=O)n(C)c(=O)n(C)c4c32)o1 (stereo not drawn)	inactive: -20.5%	–
CCC1CN(C(=O)N2CCC(C(=O)NCc3ccc(OC)cc3OC)CC2)c2cc(C)ccc2O1 (stereo not drawn)	inactive: -5.82%	–
Cc1c(Cl)cccc1-n1ncc(C(=O)Nc2ccc3c(c2)OCCO3)c1C1CCN(C(=O)OC(C)(C)C)CC1	inactive: -6.99%	–
CCOc1ccc(-c2nc(SC(C(C)=O)C(=O)N(C)C)c3c(=O)n(C)c(=O)n(C)c3n2)cc1 (stereo not drawn)	inactive: 4.22%	–

SMILES	activity change, negative = inhibition	Potency
CCc1ccc(NC(=O)c2ccc3c(c2)nnn3CC)cc1	inactive: 1.92%	–
Cc1ccccc1OCC(=O)OCc1cc(=O)n2ccsc2n1	inactive: -6.87%	–
Cc1ccc2cc3cc(C(=O)Nc4ccc(F)cc4Cl)oc3nc2c1	inactive: -10.3%	–
CCN(CC)S(=O)(=O)c1ccc2c(c1)N(CC(=O)N1CCN(c3cccc(C(F)(F)F)c3)CC1)C(=O)CO2	inactive: -8.9%	–
Cc1ccc(Cl)cc1N1CCN(CCNC(=O)Nc2ccc(Cl)cc2)CC1	inactive: -29%	–
COc1ccc(N2CCN(C(=O)c3nc(-c4ccc(Cl)cc4)n4c3CCCCC4)CC2)cc1	inactive: -16.2%	–
CCOc1ccc(CNC(=O)c2ccc(CS(=O)c3ccccc3)o2)cc1 (stereo not drawn)	inactive: 3.66%	–
O=C(C1CCN(S(=O)(=O)c2cccc3nonc23)CC1)N1CCN(c2ccccc2)CC1	inactive: 1.64%	–
COc1ccc(NC(=O)c2nnn(Cc3ccc(Br)cc3F)c2N)c(OC)c1	inactive: -19.8%	–
CS(=O)(=O)N1CCc2cc(C(=O)N3CCN(c4ccc(F)cc4)CC3)ccc21	inactive: -4.28%	–
Cc1ccc(N2CC(NC(=O)c3ccc4c(c3)OCO4)CC2=O)cc1 (stereo not drawn)	inactive: -0.185%	–
Cc1ccccc1NC(=O)Cn1nc(-c2ccc(F)cc2)c2cnc3ccccc3c21	inactive: 4.52%	–
CCOc1ccc(-c2c(C)nn3c(C)c(C(=O)NCc4ccc(C)o4)cnc23)cc1OCC	inactive: 0.395%	–
Cc1cc(N2CCC(C)CC2)nc2ccc(NC(=O)/C=C/c3cccc(Cl)c3)cc12	inactive: -20.2%	–
CCc1ccccc1NC(=O)CSc1nnc(CC)c(CC)n1	inactive: -13.8%	–
CSc1ccc(CNC(=O)c2cc3c(=O)n(Cc4ccco4)ccc3nc2C)cc1	inactive: 0.134%	–
Cc1ccc2nc(NC(=O)c3cc(=O)c4cc(Cl)ccc4o3)sc2c1	inactive: 4.38%	–
Cn1c(Oc2ccc(F)cc2)nc2c1c(=O)n(Cc1ccccc1Cl)c(=O)n2C	inactive: -24.4%	–
O=C(NCCc1ccc(Cl)cc1)c1ccc(CS(=O)(=O)Cc2ccccc2F)o1	inactive: -1.28%	–
CC(=O)N1CCc2c(sc3c2c(=O)n(-c2ccc(C)cc2)c(=O)n3CC(=O)Nc2ccccc2)C1	inactive: -10.6%	–
COc1ccccc1NC(=O)c1c(NC(=O)c2ccccc2F)sc2c1CCC2	inactive: 4.56%	–
COc1ccc(Cn2ccc3nc(C)c(C(=O)Nc4ccc(C)c(F)c4)cc3c2=O)cc1	inactive: -4.87%	–
Cc1ccc(-c2cc(C(=O)NCc3ccccc3)c3c(-c4ccc(C)cc4)[nH]nc3n2)cc1	inactive: 8.18%	–
